According to publication PMC4336329 (PLoS ONE, 2015):
Screen size: about 310,000 compounds; about 14,000 (4.5%) showed an effect of 50% or more. The effect is printed as a negative number. The list shows a part of the results.

Biological target: human ether-à-go-go-related gene (hERG) potassium channel (human, UniProt Q12809)
Experiment: primary screen, population patch clamp on CHO cells stably expressing hERG
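Note: peak tail current of the secondary pulse compared with the same well before compound.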

Sequence of human ether-à-go-go-related gene (hERG) potassium channel (Q12809 whole entry, looked up): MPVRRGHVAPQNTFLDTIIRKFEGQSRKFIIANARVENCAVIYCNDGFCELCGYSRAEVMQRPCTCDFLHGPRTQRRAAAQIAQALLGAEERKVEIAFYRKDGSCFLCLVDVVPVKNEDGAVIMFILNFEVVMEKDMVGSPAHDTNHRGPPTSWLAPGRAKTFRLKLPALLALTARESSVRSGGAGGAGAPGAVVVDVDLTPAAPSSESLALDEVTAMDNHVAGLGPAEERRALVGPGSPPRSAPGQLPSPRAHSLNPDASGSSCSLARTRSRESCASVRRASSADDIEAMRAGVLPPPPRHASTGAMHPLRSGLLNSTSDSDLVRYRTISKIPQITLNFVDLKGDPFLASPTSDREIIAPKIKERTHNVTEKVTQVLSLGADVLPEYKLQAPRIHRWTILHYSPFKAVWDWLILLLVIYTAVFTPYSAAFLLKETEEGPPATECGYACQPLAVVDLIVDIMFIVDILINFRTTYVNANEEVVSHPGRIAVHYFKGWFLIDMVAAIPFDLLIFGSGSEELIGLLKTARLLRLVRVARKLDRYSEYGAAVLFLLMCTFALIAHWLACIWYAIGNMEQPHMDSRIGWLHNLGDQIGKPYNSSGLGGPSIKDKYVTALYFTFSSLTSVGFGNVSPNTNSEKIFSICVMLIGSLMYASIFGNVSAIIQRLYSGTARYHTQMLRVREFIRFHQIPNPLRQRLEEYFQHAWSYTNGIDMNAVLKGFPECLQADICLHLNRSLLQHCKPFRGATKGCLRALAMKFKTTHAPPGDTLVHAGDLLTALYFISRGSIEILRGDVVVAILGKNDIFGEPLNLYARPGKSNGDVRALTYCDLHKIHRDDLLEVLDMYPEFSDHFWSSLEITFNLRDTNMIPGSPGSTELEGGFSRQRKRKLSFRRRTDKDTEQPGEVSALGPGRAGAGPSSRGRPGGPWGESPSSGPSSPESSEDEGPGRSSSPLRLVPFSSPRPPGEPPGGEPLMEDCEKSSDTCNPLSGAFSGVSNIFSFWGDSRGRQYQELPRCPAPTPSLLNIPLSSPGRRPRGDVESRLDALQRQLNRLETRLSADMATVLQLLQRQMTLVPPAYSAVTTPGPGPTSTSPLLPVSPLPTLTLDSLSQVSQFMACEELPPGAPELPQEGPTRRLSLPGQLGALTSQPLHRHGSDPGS

SMILES	hERG current change (%, negative = inhibition) at 10uM [%]
Cc1cc2nnc(SCC(=O)N(C)C3CCS(=O)(=O)C3)n2c2ccccc12 (stereo not drawn)	-8.99
Cc1cccc(-c2nc(=S)c3c(n2Cc2ccco2)CCCC3)c1	7.14
COCCn1nnnc1C(CC(C)C)N1CCN(c2nc3ccccc3s2)CC1 (stereo not drawn)	-9.4
O=[N+]([O-])c1ccc(N2CCN(S(=O)(=O)c3ccccc3)CC2)c2cccnc12	-76.8
O=C(O)Cn1c2ccccc2c2n[nH]c(=S)nc21	16.7
C=CCN(c1ccccc1OC)S(=O)(=O)c1cccc(C(=O)OCC(=O)c2c[nH]c3ccccc23)c1	9.96
O=C(Nc1cc(-c2ccccc2)nn1-c1ccccc1F)c1ccc([N+](=O)[O-])cc1	-4.53
COC(CNC(=O)c1cccnc1)OC	7.73
O=C1C2C3c4ccccc4C(Br)(c4ccccc43)C2C(=O)N1c1ccccc1O (stereo not drawn)	16.7
COC(=O)/C=C1/SC(=Nc2ccc(C)cc2C)NC1=O	9.81
COc1cccc(N(CC(=O)NC(C)(C)C)C(=O)C2CSC(=O)C2)c1 (stereo not drawn)	3.09
O=C(NC1CCSc2ccccc21)c1ccccc1Br (stereo not drawn)	-19
Cc1ccc(C)c(NC(=O)c2cccc(Oc3ccc([N+](=O)[O-])cc3Cl)c2)c1	-4.21
COc1ccccc1N1CCN(CC(O)COc2ccc3c(c2)CCC3)CC1.Cl (stereo not drawn)	-74.2
CCOC(=O)CC1=C(C(=O)OCC)C(c2ccc(C)o2)C(C#N)=C(N)O1 (stereo not drawn)	-13.1
CCN1C(=O)[C@H]2[C@@H](c3ccc(Cl)cc3)N3C(=O)CN(CCOC)C(=O)[C@@]3(C)[C@H]2C1=O	3.18
O=[N+]([O-])c1ccc(N2CCCC2)cc1NCc1ccccc1	15.4
NC(=O)NC(=O)c1nccnc1C(=O)O	16.9
CNS(=O)(=O)c1cccc(C(=O)OCC(=O)N2CCCC2)c1	12.6
O=C(CCn1cnnn1)Nc1ccccc1	26.1
CCOc1ccc(Cc2c(O)[nH]c(=O)[nH]c2=O)cc1	17
Nn1c(SCc2cc([N+](=O)[O-])cc3c2OCOC3)nnc1-c1cccnc1	12.4
Cn1c(SCC(=O)NC2CCCC2)nc2cccnc21	21.5

SMILES	hERG current change (%, negative = inhibition) at 10uM [%]
CN(C)S(=O)(=O)n1cc(/C=C(\NC(=O)c2ccccc2)C(=O)NCCN2CCOCC2)c2ccccc21	-15
O=S(=O)(c1ccc(Nc2ccc3c(c2)OCO3)nc1)N1CCOCC1	-13.2
CC1Cc2ccccc2N1C(=O)CN(C)CC(=O)Nc1cccc(F)c1 (stereo not drawn)	-32.7
COc1ccc(-c2ccc(SC)nn2)cc1	13
Nc1ccccc1O	12.5
NC(=O)[C@@H]1CCCNc2c(I)cc([N+](=O)[O-])cc2C(=O)N[C@@H](CO)C(=O)NCC(=O)N1	-29.2
CCOC(=O)C1(Cc2ccccc2C)CCCN(C(=O)c2cc(C3CC3)[nH]n2)C1 (stereo not drawn)	-7.24
S=c1[nH]nc(-c2ccco2)n1/N=C/c1ccc(Br)s1	7.16
COc1ccc(N(CC(=O)NC2CC3CCC2C3)S(=O)(=O)c2ccccc2)cc1OC (stereo not drawn)	-5.6
CCN(CC(=O)Nc1ccc(OC)cc1)CC(=O)N1CC(=O)Nc2ccccc21	-5.65
Cc1ccc(C(=O)NCCCCNC(=O)c2ccc(C)o2)o1	-7.22
CCN(CC(=O)Nc1c(F)cccc1F)C(=O)c1ccc(C(F)(F)F)cc1	10
Nc1nnc(Sc2ncccc2[N+](=O)[O-])s1	21.4
Nc1nc2ncc(C(=O)c3cc(Cl)cc(Cl)c3O)cc2s1	1.9
COc1ccc(Cc2nnc(NC(=O)CSc3ccc(C)cc3)s2)cc1	20.1
CC1(C)Cc2cccc(OCC(=O)Nc3cc(C(F)(F)F)ccc3N3CCOCC3)c2O1	1.13
CC1CC(C)CN(C(=O)Cn2c(-c3nonc3N)nc3ccccc32)C1 (stereo not drawn)	11
Cc1ccc(N=C2c3ccccc3C(=O)C2[N+](=O)[O-])cc1C (stereo not drawn)	12.7
Cc1noc(C(=O)NCc2ccco2)c1Cl	-15.3
Cc1ccc(OCCNC(=O)c2ccc3ccccc3n2)cc1	-34.5
O=C(COC(=O)Cc1ccccc1F)Nc1cccc(F)c1	22
O=C(Cn1c(-c2cscn2)nc2ccccc21)Nc1cc(F)ccc1F	16
COc1ccccc1CNC(=O)CSc1ccsc1[N+](=O)[O-]	9.88

SMILES	hERG current change (%, negative = inhibition) at 10uM [%]
CCc1ccc(NC(=S)N2CCNC(=O)C2CC(=O)OC)cc1 (stereo not drawn)	7.17
CSc1ccccc1NC(=O)C1CCCO1 (stereo not drawn)	-0.135
CCOC(=O)C1=C(C)N=c2s/c(=C\c3cccc(OCC(=O)O)c3)c(=O)n2C1c1ccccc1OC (stereo not drawn)	28.7
Cc1cccc(CSc2nnc([C@@H]3CCCN3)o2)c1.Cl	-8.15
CCOC(=O)c1ccc(N/C=C\C(=O)c2cccc(OC)c2)cc1	-12.8
Cc1cc(Cl)ccc1Oc1nccc(N(C)C)c1C#N	2.02
O=C1CC(c2ccc(S(=O)(=O)NC3CC3)cc2)CN1 (stereo not drawn)	-6.42
COC(=O)C(C)Oc1ccc2c(-c3cccc([N+](=O)[O-])c3)cc(=O)oc2c1 (stereo not drawn)	-25.8
O=C(Nn1c(SCc2ccc([N+](=O)[O-])cc2)nc2ccccc2c1=O)c1ccc(F)cc1	-19
COc1ccc(COC(=O)c2cccc(S(=O)(=O)N3CCN(C(C)=O)CC3)c2)cc1F	-24.4
CCCCNS(=O)(=O)/C=C/c1ccccc1	10.4
COc1ccc(OC)c(/C=C/C(=O)OCC(=O)N2CCCC2)c1	-13.5
Cc1ccc(CCNC(=O)C2CCN(C(=O)c3sccc3-n3cccc3)CC2)cc1	-22.8
Cc1cc(NC(=O)C2C3C(=O)N(Cc4ccc(Cl)cc4)C(C(=O)NCc4ccccc4)C34C=CC2(C)O4)no1 (stereo not drawn)	-22.7
C=CCNC(=O)CSc1nc2sc3c(c2c(=O)n1CCC)CCC3	-7.64
CCCS(=O)(=O)N1CCN(C(=O)c2ccccc2F)CC1	-10.6
COc1cc(C(=O)NNC(=O)COc2ccccc2Cl)ccc1OCC(=O)N1CCOCC1	-6.54
CC(C)COc1cc(=O)[nH]c(SCC(C)C)n1	-5.01
CC(=O)N/N=c1\sc2ccccc2n1C	15.9
Cc1cc(C=C2C(=O)N(C)C(=S)N(C)C2=O)c(C)n1-c1ccncc1	7.84
S=c1nc(-c2cccc(Br)c2)[nH][nH]1	20
COc1cccc(OC)c1C(=O)Nc1nnc(-c2ccc(F)cc2)s1	11.5
Cc1cccc(C)c1OCc1nnc(SCC(=O)Nc2ccccc2F)o1	10.7

SMILES	hERG current change (%, negative = inhibition) at 10uM [%]
CCC(=O)Nc1c(-c2ccccc2Cl)c(=O)c2ccccc2n1C	15.4
Cc1nn(Cc2ccccc2)c(C)c1CCC(=O)O	-9.21
COC(=O)CCC(=O)OC1(C)C(=O)C=C2C=C(C3CC3)N(CCCCO)C=C2C1=O (stereo not drawn)	4.26
O=C(Nc1ccc(S(=O)(=O)N2CCOCC2)cc1)c1ccc(Br)o1	-64.8
COc1ccccc1N1CCN(C/C(O)=C(\C#N)c2nc(-c3ccccc3)cs2)CC1	11.6
O=C(CSc1nnnn1-c1ccc(Cl)cc1)NC(=O)Nc1ccc2c(c1)OCCO2	0.0445
O=C(Nc1ccncc1)Nc1ccc(F)cc1	6.6
O=C(O)C1CC(=O)N(c2ccc(OCc3ccc(Br)cc3)cc2)C1 (stereo not drawn)	6.71
Cc1c(OCc2nn[nH]n2)ccc2c(-c3ccccc3)cc(=O)oc12	12.3
COc1cccc(C2/C(=C(\O)c3ccc4c(c3)OCCO4)C(=O)C(=O)N2CC2CCCO2)c1 (stereo not drawn)	-13.7
S=c1[nH]nc(COc2ccccc2)n1/N=C/c1cccc(Br)c1	22.2
O=S(=O)(Nc1ccc2[nH]ncc2c1)c1ccccc1Cl	16.9
O=C(NCC1COc2ccccc2O1)c1ccc(Br)s1 (stereo not drawn)	16
O=C(COC(=O)c1cccnc1Cl)c1ccccc1	-4.84
Cc1cccc(CNC(=O)C2CCCN(c3nn4c(=O)cc(C)nc4s3)C2)c1 (stereo not drawn)	-33.8
COc1cccc(-c2cc(C(=O)NCc3ccc(Cl)cc3)no2)c1	13.6
COc1ccc(N2CCN(C(=O)CNC(=O)c3ccc(C(C)(C)C)cc3)CC2)cc1	0.964
COc1ccc(C(=O)NCC(=O)OCC(=O)N2CCc3ccccc32)cc1	-32.8
c1ccc2c3c([nH]c2c1)-c1[nH]ncc1CC3	1.38
O=C1CCCC2=C1C(c1ccsc1)CC(=O)N2c1ccccc1F (stereo not drawn)	4.64
Cc1ccc(N2CC(C(=O)NCc3ccco3)CC2=O)cc1Cl (stereo not drawn)	-4.79
